Hit rate of the full screen: of about 410,000 compounds, about 5,000 (1.2%) were called active. Inconclusive results, whose numbers are uncertain, are shown with a selection of clear calls. Calls come from the whole dose curve; as a rule, active = well fitted inhibition curve with a large enough effect; inconclusive = small, poorly fitted or top-dose-only effect; inactive = no such curve, though single readings can be large or run the other way. A potency beside an inconclusive call is a rough fit, not a confirmed value.
Test: qHTS for Inhibitors of TGF-b; note: nearly all actives have a fitted effect of over 65% in size
Details: HepG2 CAGA-GFP TGF-b/SMAD3 reporter, GFP fluorescence, 18 h, TGF-beta stimulated, 500 pg/mL final; series mostly up to 46.1 µM; activity, negative = inhibition: at the top concentration
How it was run: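 Using HEPG2 CAGA-GFP reporter cells at 1000 cells/well, we pinned test compounds, stimulated with recombinant TGF-beta (500 pg/mL final) and measured total well GFP after 18 h.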
% is set by controls: 0 for no effect and ±100 for the full control effect; potency is the fitted concentration of half-maximal effect; tags give direction and shape of the fitted curve.

SMILES	Potency	activity, negative = inhibition
COc1ccc(C(=O)/C=C2/C(=O)Nc3ccccc32)c(OC)c1	active: 12.6 µM	
O=C(CSc1cccc[n+]1[O-])Nc1c(Br)cc([N+](=O)[O-])cc1Br		inactive: -18.2%
COc1ccc(/C=C/C(=O)NC(=S)NCCc2ccc(OC)c(OC)c2)cc1	active: 5.62 µM	
O=C(CCS(=O)(=O)c1ccc(Cl)cc1)Nc1nnc(-c2cccs2)o1	inconclusive: 25.1 µM [inhibitor, single point]	
COc1ccc(Br)cc1/C=N/NC(=O)CNC(=O)c1cccnc1	inconclusive: 35.5 µM [inhibitor, single point]	
OCC1(Cc2cccc(Cl)c2)CCCN(Cc2ccc3cc(F)ccc3n2)C1 (centres undefined)	inconclusive: 35.5 µM [inhibitor, single point]	
C#CCOCCOCCOCCNc1nc(N2CCN(C(=O)C(Cc3cc4ccccc4[nH]3)n3cc(C(N)C(C)CC)nn3)CC2)nc(N2CCN(C(=O)C(Cc3cc4ccccc4[nH]3)n3cc(C(N)C(C)CC)nn3)CC2)n1 (centres undefined)		inactive: -5.38%
CC(=O)Nc1ccc(CNc2nc3cc(-c4cccc(C(F)(F)F)c4)sc3c(=O)n2C)cc1	inconclusive: 2.82 µM [inhibitor, full curve, poor fit]	
Cc1cccc(S(=O)(=O)Nc2ccc(C)c3c2OC(C)(C)C3)c1	inconclusive: 14.1 µM [inhibitor, single point]	
CN1/C(=C\C(=O)COc2ccc3c(c2)OCO3)C(C)(C)c2ccccc21	inconclusive: 17.8 µM [inhibitor, single point]	
CCOc1ccc(C(=O)Nc2cc(-c3ccccc3)no2)cc1		inactive: -7.01%
Nc1nc(Cl)nc2c1ncn2C1OCC(O)C(O)C1O (centres undefined)	inconclusive: 3.55 µM [inhibitor, single point]	
Cc1cc(NC(=O)C(C)SCC(=O)Nc2ccccc2C(C)(C)C)no1 (centres undefined)	inconclusive: 35.5 µM [inhibitor, single point]	
CCN(Cc1ccccc1)C(=O)c1cc2ccc3cccnc3c2[nH]1	inconclusive: 25.1 µM [inhibitor, partial curve, poor fit]	
COc1ccc(N(CC(=O)Nc2ccc(C)c(C)c2)C2=NC3CS(=O)(=O)CC3S2)cc1 (centres undefined)		inactive: 9.56%
Cc1ccc2sc(N(CCCN(C)C)C(=O)c3ccc(S(=O)(=O)N(C)Cc4ccccc4)cc3)nc2c1C	inconclusive: 35.5 µM [inhibitor, single point]	
COCCOC(=O)N1CCCCC1c1cc(C(=O)Nc2cccc3c2CCCC3)no1 (centres undefined)	inconclusive: 0.316 µM [inhibitor, full curve, poor fit]	
Cc1ccc(OCCCCCCN2CCNCC2)cc1		inactive: -23.9%
Cc1ccccc1-n1nnnc1Sc1nnnn1-c1ccccc1	inconclusive: 35.5 µM [inhibitor, single point]	
Cc1ccc(CNC(=O)c2cnn3c(C)c(Cc4c(F)cccc4Cl)c(C)nc23)cc1		inactive: 10%
CCCn1c(=O)n(C)c(=O)c2c(SCc3cc(C(C)=O)ccc3OCC)nc(C3CC3)nc21		inactive: 3.89%
O=C(Nc1ccc(S(=O)(=O)Nc2ncccn2)cc1)c1cccnc1	inconclusive: 35.5 µM [inhibitor, single point]	

SMILES	Potency	activity, negative = inhibition
O=C(O)CCCNS(=O)(=O)c1cccc2nsnc12		inactive: -22.2%
COc1ccc(/C=C\C(=O)c2c(O)ccc3c(C)cc(=O)oc23)cc1OC	inconclusive: 20 µM [inhibitor, single point]	
CCCOc1c(Br)cc(/C=N/O)cc1OC	inconclusive: 35.5 µM [inhibitor, single point]	
O=C(NC1CCCCC1)c1sc(=S)n2c1[nH]c(=O)c1ccccc12	inconclusive: 22.4 µM [inhibitor, partial curve, poor fit]	
C=CCNC(=S)NCC	inconclusive: 17.8 µM [inhibitor, single point]	
CCN(c1ccccc1)S(=O)(=O)c1nnc(NC(=O)C(C)Oc2ccccc2)s1 (centres undefined)	inconclusive: 22.4 µM [inhibitor, single point]	
COc1ccc(Nc2ccccc2N)cc1	inconclusive: 28.2 µM [inhibitor, single point]	
COCCN(Cc1ccc(C)cc1)C(=O)[C@H]1O[C@@H](n2cnc3c(N)ncnc32)[C@H](O)[C@@H]1O	inconclusive: 5.62 µM [inhibitor, single point]	
CC1CN(c2nc3ccccc3nc2SCC(=O)Nc2cccc(C(F)(F)F)c2)CC(C)O1 (centres undefined)	active: 15.8 µM	
O=C1c2oc3ccccc3c(=O)c2C(c2cccc(O)c2)N1Cc1ccc(F)cc1 (centres undefined)	inconclusive: 22.4 µM [inhibitor, single point]	
CCCC(=O)N(CCN1CCOCC1)c1nc2c(OC)ccc(OC)c2s1		inactive: 8.23%
O=C(c1cc(-c2ccc(Cl)cc2)on1)N(Cc1ccc(F)cc1)Cc1ccco1	inconclusive: 3.98 µM [inhibitor, single point]	
NC(=Nc1ccc(Br)cc1)c1ccccc1	inconclusive: 35.5 µM [inhibitor, single point]	
CCCNC(=S)N1CCC(C(=O)c2ccc(OC)cc2)CC1		inactive: -1.07%
O=C(CN1CCCN(Cc2ccc(F)cc2Cl)C1=O)NC1CCCCCC1	inconclusive: 35.5 µM [inhibitor, single point]	
COc1ccccc1Nc1nnc(SCC(=O)N2CCCC2)s1		inactive: -1.75%
CN(C)C(CNC(=O)C1CC(=O)N(c2cccc(C(F)(F)F)c2)C1)c1ccccc1 (centres undefined)		inactive: -7.7%
COCCNC(=S)NNc1ccccc1[N+](=O)[O-]		inactive: -20%
O=C(NCc1cn2ccsc2n1)c1cccc(C(F)(F)F)c1	inconclusive: 35.5 µM [inhibitor, partial curve, poor fit]	
CC(=O)Nc1cccc(-c2cc(NC=O)c3ncc(-c4ccc(F)c(Cl)c4)n3c2)c1	inconclusive: 35.5 µM [inhibitor, single point]	
CC(C)c1ccc(Nc2c(-c3ccc(N4CCOCC4)cc3)nc3ncccn23)cc1	inconclusive: 1.41 µM [inhibitor, full curve, poor fit]	
Cc1ccc(C2=NN(CC(=O)NC(C)c3ccccc3)C(=O)CC2)cc1 (centres undefined)		inactive: -2.34%

Source: PubChem BioAssay AID588855 (National Center for Advancing Translational Sciences (NCATS), 2011)
